We go through 4 compounds from PubChem BioAssay (NCI).

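Values below derive from 48-hour exposures of cells grown in 96-well plates, with endpoints linearly interpolated between the two concentrations bracketing the appropriate inhibition level. The concentration for 50% growth inhibition is given as GI50. TGI: concentration producing complete growth inhibition.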

For this test, the system named is NCI-H322M lung. In words: NCI tumour cell line growth inhibition, 48 h.
As to `Cc1cccc(/C=C/c2ccc(NC(=S)NCCCCN(C)C)cc2)c1`, the GI50 was 14.9 µM and the TGI worked out at 28.4 µM.
The corresponding values for `COc1cc2cc(C(=O)N3C[C@@H](CCl)c4c3cc(OC(=O)N3CCN(C(=O)CCC(=O)N5CCN(C)CC5)[C@@H]5CSSC[C@@H]53)c3ccccc43)[nH]c2c(OC)c1OC` are 0.0251 µM and 0.0973 µM.
In the same order, the values of `COc1ccc(CN2[C@H](C(=O)NCCCCCCC(=O)NO)Cc3c([nH]c4ccccc34)[C@H]2C2CC2)cc1` are 2.13 µM and 12.5 µM.
With `CN(C)c1ccnc(NCCCSC(c2ccccc2)(c2ccccc2)c2ccccc2)c1`, the GI50 is 14 µM and the TGI was determined as 28.2 µM.
